From patent US12551573B2, “Compositions and methods for the targeting of PCSK9” (Scribe Therapeutics Inc., priority 2022, dated 2026)
Like-named read-outs stand apart in the source and are kept apart here.

Key:
[1] = system: B2M locus; test: B2M repression (HLA-negative cells by flow cytometry) in HEK293T cells transfected with LTRP plasmids; format: cell-based, human; settings: LTRP5 without ADD, scaffold 316 spacer 7.165, days 6/7 to 26/27, vs LTRP5-ZIM3
Description: Each construct was tested in triplicate.
Each construct was tested in triplicate. […] Cells were harvested for repression analysis at day 5, day 12, day 21, and day 51 post-transfection.
Each construct was tested in triplicate. […] Cells were harvested for repression analysis at day 8, day 13, day 20, and day 27 post-transfection. […] In addition, cells were also harvested on day 5 post-transfection for gDNA extraction for bisulfite sequencing to assess off-target methylation at the non-targeted VEGFA locus, which was performed using similar methods as described in Example 13.
HEK293T cells were transfected as described in Example 14, except that the cells were transfected with 50 ng each of a plasmid encoding the LTRP construct and a plasmid encoding the gRNA. […] 72 of the 95 top repressor domains were assessed together in one experiment where B2M expression was measured at 7, 14, 19, and 26 days after transfection, and the data shown in Tables 57-60.

[2] = system: HBEGF locus; format: cell-based, human; settings: high-throughput screen of dXR repression of the HBEGF gene
[3] = change in abundance of each domain in the library before and after diphtheria toxin selection
[4] = abundance of each domain in the library before and after diphtheria toxin selection, HEK293T cells

B1: DOMAIN_10123: one of the nine most effective repressor domains (protein, listed as Rattus norvegicus)
chain: ALVTFEDVAVRFTQEEWALLDPSQKILYRDVMRETYRNLTSVGINWECWDLEACFRSLGRNLRVQVVKRKCELTNSGPCAE
For B1, the “B2M repression by LTRP5 constructs with enhanced repressor domains” value (“B2M repression by LTRP5 constructs” for short) [1] was “most effective repressor domains” and the “Log2 (fold change)” value [2, 3] was 3.6356.

B2: DOMAIN_17001 (protein, listed as Rhinolophus ferrumequinum)
chain: SEDLVTFRDVAVDFSQEEWEQLNSAQRGLYRDVMLENYRSLVSLGVSVSKPDVISLLEQGKEPWVVKEGTRGTYSDWKYAF
B2 was tested, and the “Log2 (fold change)” value [2, 4] was 3.045.

B3: DOMAIN_20505: one of the nine most effective repressor domains (protein, listed as Chlorocebus sabaeus)
chain: SQESVAFEDVAVYFTTKEWAIMVPAERALYRDVMLENYEAVAFVAVPPTSKPALVSHLEQGKESCFIRPPGVLSRSDWRAG
For B3, the “B2M repression by LTRP5 constructs” value [1] was “most effective repressor domains” and the “Log2 (fold change)” value [2, 3] was 3.4989.

B4: DOMAIN_17027 (protein, listed as Balaenoptera acutorostrata)
chain: PQVLVSFEEVAVLLSQEEWGRLSPAQKGLYRDVMMETYGNLVSLGLQGSKPDVISKLEQGKEPWAPHSPRIEGSWIWRRRR
For B4, the “Log2 (fold change)” value [2, 4] was 3.131.

B5: DOMAIN_7694: one of the nine most effective repressor domains (protein, listed as Columba livia)
chain: QDVVTFKDVAIYFSPEEWVRLSAGQRELYQEVMLDNYELVTSLDRESKLLYKMDPEEESCEGVPYSSADSGAPDSSSTSAC
In the case of B5, the “B2M repression by LTRP5 constructs” value [1] is reported as “most effective repressor domains” and the “Log2 (fold change)” value [2, 3] is reported as 3.7111.

B6: DOMAIN_27506 (protein, listed as Bos mutus)
chain: QPQGTMTFKDVEVTFSQDEWGLLDASQRNLYRDVMLENYGNMASVVGPFTKPALISWLEAREPWGLNVQGVQFKGNPGAAP
In the case of B6, the “Log2 (fold change)” value [2, 3] is reported as 3.8121.

B7: DOMAIN_30173: one of the nine most effective repressor domains (protein)
chain: VAFRDVIVDFTQEEWQQLKPAQKDLYRDVMMEIYWNLVSLDLETEGDMNEPDPEKDSWEDRTSIVVVEGLMRNGAQGYACEKAGIQGCRV
modifications: Phyllostomus discolor
In the case of B7, the “B2M repression by LTRP5 constructs” value [1] is reported as “most effective repressor domains” and the “Log2 (fold change)” value [2, 3] is reported as 2.2538.

B8: DOMAIN_17023 (protein, listed as Sapajus apella)
chain: SQEPVTFADVAVVFTPEEWVFLDSTQRSLYRDVMLENYRNLASVAGDQLRKPNASSDLEQRGEQWNTERGVISDTCPEPQL
For B8, the “Log2 (fold change)” value [2, 4] was 2.5472.

B9: DOMAIN_15507: one of the nine most effective repressor domains (protein)
chain: SKAPITFGDLAIYFSQEEWEWLSPIQKDLYEDVMLENYRNLVSLGLSFRRPNVITLLEKGKAPWMVEPARRRRGPDSGSKV
modifications: Cebus imitator
For B9, the “B2M repression by LTRP5 constructs” value [1] was “most effective repressor domains” and the “Log2 (fold change)” value [2, 3] was 3.8531.

B10: DOMAIN_27604: one of the nine most effective repressor domains (protein, listed as Ailuropoda melanoleuca)
chain: LLTFEDVAVSFSEEEWELLDPPQKTLYNDVMQENYETVISLGLKLKNDTGNDQPISISALEMQASGSKVLRKARMKVAQKT
For B10, the “B2M repression by LTRP5 constructs” value [1] was “most effective repressor domains” and the “Log2 (fold change)” value [2, 3] was 2.8198.

B11: DOMAIN_17905: one of the nine most effective repressor domains (protein)
chain: EMGLLTFRDIAIEFSLEEWQCLDCAQRNLYRDVMLENYRNLVSLGIAVSKPDLITCLEQNKESQNIKRNKMVAKHPVMHSH
modifications: Pan troglodytes
In the case of B11, the “B2M repression by LTRP5 constructs” value [1] is reported as “most effective repressor domains” and the “Log2 (fold change)” value [2, 3] is reported as 2.5038.
